# Out of some 310,000 compounds screened, about 18,000 (5.8%) were called active. This list was built around the results that the source calls inconclusive (neither active nor inactive); the mix of calls is not that of the screen. The call rests on the fitted dose curve; in most records, active means well fitted inhibition curve with a large enough effect; inconclusive means small, poorly fitted or top-dose-only effect, or another doubt; inactive means no such curve, though single readings can be large or run the other way. No potency is given beside an inconclusive call; the fits are too rough.
# Experiment: Primary qHTS for delayed death inhibitors of the malarial parasite plastid, 48 hour incubation
# Conditions: P. falciparum luciferase growth in erythrocytes; series mostly up to 28.7 µM; activity change, negative = inhibition: at the top concentration
# Outline: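 Growth was read as firefly luciferase luminescence after a 48 h, 37 C, 5% CO2 exposure of compounds to reporter-bearing P. falciparum cultures (0.1% parasitemia, 2% hematocrit final) in Albumax-supplemented RPMI 1640.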
# On the % scale 0 is the no-effect control and ±100 the full control effect; potency means the concentration at half of the fitted maximal effect; tags describe the fitted curve by direction and shape.
SMILES,Potency,"activity change, negative = inhibition"
O=C(Nc1ccc(S(=O)(=O)N2CCOCC2)cc1)C1COc2ccccc2O1 (stereo unspecified),"inconclusive [inhibitor, partial curve]",–
O=C(NCC(c1ccco1)N1CCN(c2ccccc2F)CC1)C(=O)NC1CCCC1 (stereo unspecified),"inconclusive [inhibitor, single point]",–
COc1ccc(CN(CC2CCCO2)C(=O)CN2C(=O)C(C)Oc3ccc(C)cc32)cc1OC (stereo unspecified),"inconclusive [inhibitor, partial curve, poor fit]",–
C=CCn1c(NCc2ccc(OC)cc2O)nc2ccccc21,"inconclusive [inhibitor, single point]",–
CSc1ccc(/C=C/C(=O)c2ccc(NC(C)=O)cc2)cc1,–,inactive: -3.5%
Cc1ccc(-c2csc3ncnc(N4CCN(C(=O)c5ccco5)CC4)c23)cc1,"inconclusive [inhibitor, single point]",–
O=C1CC(NS(=O)(=O)c2cccnc2)CN1c1cccc(F)c1 (stereo unspecified),–,inactive: 0.973%
COc1cccc(CN2CCN(C(=O)CCc3nnc(C4CCCCC4)o3)CC2=O)c1,"inconclusive [inhibitor, partial curve, poor fit]",–
O=c1[nH]c(=O)n(-c2ccc(F)cc2)c2c1C(C(F)(F)F)(C(F)(F)F)N=C(c1ccc(F)cc1)N2,"inconclusive [inhibitor, single point]",–
CCOc1nc(NC2CCCCC2)nc(NC(C)(C)C)n1,"inconclusive [inhibitor, single point]",–
Cc1nnc(NC(=O)c2ccco2)s1,–,inactive: -3.99%
CCc1c(C)c(C#N)c2nc3ccccc3n2c1N1CCN(c2cc(C)ccn2)CC1,"inconclusive [inhibitor, full curve]",–
c1ccc2cc(CSCc3nc4ccccc4[nH]3)ccc2c1,active: 13.1 µM,–
Cc1cc(C)c(NC(=O)c2ccc3nccnc3c2)c(C)c1,"inconclusive [inhibitor, single point]",–
CC(C)N(Cc1cc2ccccc2[nH]c1=O)C(=O)c1cccnc1,–,inactive: 47.1%
COCc1cc(C)nc(SCC(=O)Nc2cccc3cccnc23)c1C#N,–,inactive: 15.4%
CCOc1cc(/C=N/Nc2nncc(-c3ccccc3)n2)ccc1O,"inconclusive [inhibitor, partial curve, poor fit]",–
Cc1cc(C(=O)CSc2nncs2)c(C)n1Cc1ccco1,–,inactive: 0%
COC(=O)c1cc2sccc2n1Cc1nc(-c2ccc(OC)cc2)oc1C,"inconclusive [inhibitor, single point]",–
CCC(CC)C(=O)c1c[nH]c(C(=O)N2CCN(c3ccc(OC)cc3)CC2)c1,"inconclusive [inhibitor, single point]",–
COC(=O)c1ccc(Cl)c(NC(=O)CN2CCN(Cc3ccccc3)CC2)c1,–,inactive: -4.28%
O=S(=O)(NN=C1CCCCC1)c1ccccc1,"inconclusive [inhibitor, single point]",–
CN(C)C(/C=C/Nc1ccc(O)cc1)=C(C#N)C#N,"inconclusive [inhibitor, single point]",–
Cn1cccc1C(=O)NCC1CCCCC1,"inconclusive [inhibitor, partial curve]",–

SMILES,Potency,"activity change, negative = inhibition"
CCCCN(C(=O)CCC(=O)Nc1cc(C)on1)C(C(=O)NC1CCCC1)c1cccc(OC)c1 (stereo unspecified),"inconclusive [inhibitor, partial curve]",–
CCCCn1c(C)cc2c(c1=O)C1O[C@](c3ccsc3)(Cc3cc(OC)c(OC)cc31)O2,"inconclusive [inhibitor, partial curve]",–
C/C(=N\NC(=O)c1c(C)nc2ccccn12)c1ccccc1F,–,inactive: -2.98%
Cc1ccn2cc(-c3ccc4c(c3)NC(=O)CO4)nc2c1,–,inactive: 313%
CCN1C(=O)/C(=C/c2nc3ccccc3c(=O)[nH]2)c2ccccc21,–,inactive: -1.51%
CCCOc1ccc(CCC(=O)N/N=C/c2ccco2)cc1,"inconclusive [inhibitor, single point]",–
Cc1sc2nc(C(C)C)nc(SCC(=O)NCc3ccco3)c2c1C,"inconclusive [inhibitor, single point]",–
CC(C)OP(=O)(Nc1cccc2ccccc12)OC(C)C,"inconclusive [inhibitor, partial curve, poor fit]",–
COc1ccccc1OCC(=O)Nc1nc2c(s1)CCCC2,–,inactive: 23.3%
O=c1[nH]c2ccccc2nc1-c1cccs1,–,inactive: 64.2%
CCn1c(N2CCN(C(=O)NC3CCCCC3)CC2)nc2ccccc21,"inconclusive [inhibitor, single point]",–
O=C(CSc1nc(-c2ccc(F)cc2)cs1)N1CCOCC1,–,inactive: 125%
Cc1ccc(C(C(=O)NC2CCCC2)N(Cc2ccc3c(c2)OCO3)C(=O)Cc2cccs2)cc1 (stereo unspecified),active: 13.1 µM,–
CCN(C(=O)c1cc2c(s1)-c1ccccc1S(=O)(=O)C2)c1cc(OC)ccc1OC,active: 9.28 µM,–
CC(C)C(c1nnnn1Cc1cccs1)N1CCN(c2ccccc2)CC1 (stereo unspecified),–,inactive: -8.69%
CNC(=S)N/N=C(\C)c1ccc(Cl)s1,"inconclusive [inhibitor, single point]",–
COc1ccc(CNC(=O)c2c(-c3c(F)cccc3Cl)noc2C)cc1,–,inactive: -21.7%
COc1ccc(-c2nc(CS(=O)CC(=O)NCc3ccc(F)cc3)c(C)o2)cc1 (stereo unspecified),"inconclusive [inhibitor, single point]",–
CCCOc1ccc(-c2nc(C#N)c(N3CCN(CC)CC3)o2)cc1,"inconclusive [inhibitor, single point]",–
Cc1cc(N2CCN(CC(O)C(F)(F)F)CC2)c2ccccc2n1 (stereo unspecified),–,inactive: -9%
COc1ccc(NC(=O)Cc2ccsc2)cc1S(=O)(=O)N1CCOCC1,"inconclusive [inhibitor, single point]",–
O=[N+]([O-])c1ccc(Cl)c(/C=N/N2CCN(C3c4ccccc4-c4ccccc43)CC2)c1,"inconclusive [inhibitor, single point]",–
C=CCN1C=CC(=CC=C(C#N)C#N)C=C1,–,inactive: 57%
Cn1c(C(=O)N2CCOCC2)cc2c(=O)n3ccccc3nc21,–,inactive: 13.2%

SMILES,Potency,"activity change, negative = inhibition"
Fc1cnc(N/N=C/c2ccc(-c3ccc(Br)cc3)o2)nc1N1CCOCC1,"inconclusive [inhibitor, single point]",–
COc1ccccc1C1(O)CCN(CC(=O)Nc2c(C)nn(C)c2C)CC1,"inconclusive [inhibitor, single point]",–
COc1ccc(-c2csc(NC(=O)CSc3nc(C)nc4sc(C(=O)O)c(C)c34)n2)cc1,"inconclusive [inhibitor, single point]",–
COc1ccc(OC)c(-c2csc(NC(=O)CN3C(=O)NC4(CCCC4)C3=O)n2)c1,–,inactive: 0.557%
COc1cccc(/C=N/Nc2nc(N3CCCC3)nc(N3CCCC3)n2)c1O,"inconclusive [inhibitor, single point]",–
COc1ccc(OCC(=O)NCC(c2ccc(OC)cc2)N2CCCCC2)cc1 (stereo unspecified),"inconclusive [inhibitor, single point]",–
Nc1ccc(O)cc1C(=O)OCC(=O)C12CC3CC(CC(C3)C1)C2,"inconclusive [inhibitor, partial curve]",–
CC(=O)c1cccc(S(=O)(=O)N2CCN(c3nc4cc(C)cc(C)c4cc3C#N)CC2)c1,"inconclusive [inhibitor, partial curve]",–
Cc1nn(CC(=O)NCCC2=CCCCC2)c(C)c1[N+](=O)[O-],"inconclusive [inhibitor, single point]",–
Cc1ccc(C)c(NC(=S)N(CCc2nc3cc(C)c(C)cc3[nH]2)Cc2cccnc2)c1,"inconclusive [inhibitor, partial curve, poor fit]",–
CCS(=O)(=O)N1Cc2ccccc2CC1C(=O)N(C)Cc1ccc(OC)cc1OC (stereo unspecified),"inconclusive [inhibitor, partial curve, poor fit]",–
O=C(O)CC1c2ccccc2C=Cc2ccccc21,–,inactive: -4.41%
COc1cccc(-c2nc(N3CCC(C)CC3)c3ccccc3n2)c1O,–,inactive: -9.02%
Cc1ccc(Cc2cnc(NC(=O)c3cccs3)s2)cc1,–,inactive: 107%
Cc1cc2nc(C)c(Cc3ccccc3)c(=O)n2[nH]1,"inconclusive [inhibitor, partial curve, poor fit]",–
CCCCN(C(=O)c1ccc(S(=O)(=O)N(C)C)cc1)c1nc2ccccc2s1,"inconclusive [inhibitor, partial curve, poor fit]",–
CSc1ccc(CCNC(=O)C2CCCN(c3nn4c(=O)cc(C)nc4s3)C2)cc1 (stereo unspecified),"inconclusive [inhibitor, partial curve, poor fit]",–
O=C(/C=C/c1cccs1)c1cc(Cl)ccc1O,"inconclusive [inhibitor, partial curve]",–
CN(C)CCCC1(O)c2ccccc2C=Cc2ccccc21,"inconclusive [inhibitor, full curve, poor fit]",–
Cc1ccccc1CSc1nnc(-c2ccncc2)n1C,–,inactive: 30.2%
COC(=O)[C@@]1(Cc2ccc(F)cc2)[C@H]2c3cc(C(=O)N4CCCC4)n(Cc4ccc(C(F)(F)F)nc4)c3C[C@H]2CN1C(=O)c1ccccc1,"inconclusive [inhibitor, partial curve]",–
Cc1cc(C(=O)CN2C(=O)C(=O)N(Cc3ccccc3)C2=O)c(C)n1Cc1ccc(F)cc1,"inconclusive [inhibitor, single point]",–
O=c1c2c(c(-c3ccccc3)nn1Cc1ccccc1)CCCC2,"inconclusive [inhibitor, single point]",–
